# The list shows a part of the results.
# Tested on: PfSIP2 AP2 domain 1 (GST-tagged)
# Experiment: gcPBM binding intensity (ln(normalized median fluorescence intensity)); higher = stronger DNA binding
# Method in brief: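 After 1 h on an Agilent 4 × 180k array of primer-extended double-stranded 36-bp intergenic genomic probes and negative controls, bound GST-tagged P. falciparum DNA-binding domains were detected with Alexa488 anti-GST antibody and scanned at 488 nm. The domains had been expressed in E. coli, and binding took place in 1× PBS with 1% milk, 0.2 mg/ml BSA, 0.5% salmon testes DNA and 0.03% Triton X-100. Binding intensity is the highest Masliner-normalised natural-log median intensity across replicate spots of either probe orientation.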
row,Sequence,gcPBM binding intensity (ln)
1,CATATGTATATGACTACACACAAGGGTGTACCTATA [CACACA_site6670],6.83
2,TATATACAACGTTAAGCACACACAAAAAAAATTTAA [CACACA_site9013],6.99
3,TTGCATTTATTATACACACACAAAAAAATATTTATA [CACACA_site6252],7.21
4,TGTTCATTTTTAAAATGTACATATATGTTGTTCCAT [XGTACX_site8444],7.01
5,CTATATGTTAAATTCTCACACATTATTACAATTTAA [CACACA_site5979],7.01
6,ACGTATTTTTAAATATATGAATTATGTAACTTGTGA [CACACA_negctrl_site1446],6.92
7,TATACTATTTAAATGTGTACTAAAAGAATATATTAT [XGTACX_site5238],7.08
8,GAATATGTGATATTTTGTACATAAAAATAATATATA [XGTACX_site6398],6.93
9,TATTATAATATATTTGTGCACATAATATCTCCGCTA [GTGCAC_site9799],9.22
10,AGTAGTCTGGAGAAAAGTACATAGTATCTGATAACC [XGTACX_site2028],6.97
11,AAAAAGATAAAATATACATGCATATATAATATACAT [TGCATGCA_site488],6.62
12,TGCTTATATATAAATTGTACTGAAAGAATAAAATAA [XGTACX_site4025],7.07
13,AAAAAAAAAAAATACACACACATATTTATTTATATA [CACACA_site7114],6.76
14,AAAAAAGGTAAAAAAAGTACAAAAAAAAAATTAAAA [XGTACX_site6993],7.03
15,TTTGGATAAAAAATATGTACACACATATAGATATCT [XGTACX_site5660],6.9
16,TTGACAGGAACGTTGGTGCACGTACTGTTTTTCTTT [GTGCAC_site9389],10.7
17,GTATAATATTTTAATGCACACACACTAATAAAAAAA [CACACA_site8939],7.65
18,AAGTATAAATAAAGGCGTACACATGTAAATTATATT [XGTACX_site126],7.01
19,TAATAGATGTTATGAAGTACTAAATATTAAATATAA [XGTACX_site5717],6.93
20,TTTATTTTAAATGGGTGTACTCATTCCTTATGGAAG [XGTACX_site1397],6.82
21,AAAATAATTCATGTTGGTAATAAGACTCGAGGTGAA [CACACA_negctrl_site1054],7.02
22,ATAATATGAAATATAACACACATATATAAAAACATT [CACACA_site866],6.89
23,TATTTTTTTTTTGGGTGTACCTTTTATATATATTGT [XGTACX_site5036],7.17
24,TATACACATTTTTATACACACTTGTTTTATAAAACG [CACACA_site6480],6.96

# Source: the supplement of paper PMC11417369
